Whole data set: some 33,000 sequences, median “E-score (-0.5 to 0.5)” near -0.035, cut for the highest 2% near 0.34. The list shows a part of the results.
Target: T1, Mot3 (UniProt P54785)
T1 sequence: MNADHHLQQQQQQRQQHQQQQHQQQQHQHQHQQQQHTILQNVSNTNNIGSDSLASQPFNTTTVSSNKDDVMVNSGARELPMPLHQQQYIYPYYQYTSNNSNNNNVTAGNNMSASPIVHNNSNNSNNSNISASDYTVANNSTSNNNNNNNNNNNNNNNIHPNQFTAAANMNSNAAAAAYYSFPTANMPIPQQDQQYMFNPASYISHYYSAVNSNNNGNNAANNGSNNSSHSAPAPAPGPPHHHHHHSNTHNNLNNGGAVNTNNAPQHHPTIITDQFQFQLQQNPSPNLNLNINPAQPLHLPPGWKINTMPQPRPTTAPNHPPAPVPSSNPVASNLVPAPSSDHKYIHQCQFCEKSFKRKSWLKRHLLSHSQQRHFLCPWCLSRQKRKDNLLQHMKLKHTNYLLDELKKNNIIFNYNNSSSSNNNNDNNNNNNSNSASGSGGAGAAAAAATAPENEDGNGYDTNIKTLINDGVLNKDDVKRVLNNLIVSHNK
Assay: PBM E-score (8-mer binding enrichment) (E-score (-0.5 to 0.5)); higher = stronger / more preferred TF binding; most listed sequences are background and not binding sites
Conditions: protein concentration: 200 nM; construct: GST-full length
Procedure, shortened: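 E-scores (a modified Wilcoxon-Mann-Whitney statistic) were assigned by the Universal PBM Analysis Suite to every ungapped eight-base word pooled with its reverse complement. The input came from universal all-10-mer Agilent arrays made double-stranded by primer extension and probed with GST-tagged yeast transcription factors at about 100-200 nM. Fluorescent anti-GST detected bound protein, and masliner normalised the scans.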

Sequence | PBM E-score
GTGACCGA | -0.281
GACCGACC | -0.126
GGTAGACC | -0.232
AGTACGTA | 0.227
CAAAGTGG | -0.258
CAGCGGAG | -0.221
ACCTTCGC | 0.0938
CACGAGTC | -0.164
CTCTAATC | -0.191
GACCGGAC | -0.175
ATATTGAA | -0.0499
AATCATAG | 0.157
CAAACGAG | 0.00468
CAACAGCA | 0.145
ATCCCCAC | -0.158
CCAGGGAC | -0.205
ATGTCTTC | 0.018
ACCCAAAC | 0.00273
CTAGTGAA | -0.0434
AGCTGCGA | -0.252
GCCATTCA | -0.193
GCTGATGA | -0.0248
ATTCTTTG | 0.14
ATTAAGGA | 0.0441
CGGTGCCA | -0.377

Sequence | PBM E-score
CTGCGCGC | -0.0095
GTATTACA | 0.326
AACTATCA | -0.0191
TCCGCGCA | -0.0796
AGATGGCA | -0.0761
ACCTGAGC | 0.0803
ACTCAGAT | -0.121
ACGATTAA | 0.197
ACGGCCTA | -0.0205
AAAGGTGG | 0.0385
TACCTGAA | 0.315
ACAGACCC | 0.0371
AGTGGATG | -0.08
AACAAGAA | 0.229
AACATTCG | 0.0493
AATTACCG | 0.196
GTTCAGAA | 0.11
AAAGCCCG | -0.151
CTCCCTTC | -0.286
CTCTTGAC | -0.00996
GACGCGAC | -0.0857
GTTTTGTA | 0.199
AGCAAGAT | -0.0696
AACGGGTC | -0.271
GGCTGACA | -0.119

Sequence | PBM E-score
CATTCGGC | -0.304
TCTATTCA | 0.165
AGCGGTCA | -0.213
GCGAATCC | -0.129
ACCCGACT | 0.131
AAGCCGAG | -0.27
CGTACATA | 0.305
ACGAGAGG | -0.152
AATACAGA | 0.0732
TACTTCTA | 0.165
ACACTCTG | 0.0611
ATAGCGCG | 0.0578
ACTCTGCG | -0.00663
CCGCCACC | -0.179
GAACTATC | -0.164
CAGAACCG | 0.101
CTAATCCA | -0.186
CAACAAAC | 0.155
GTGCACAC | -0.162
TAGCCCAA | -0.212
ATAGTACC | 0.075
GCATAAGA | 0.0317
CTCTGGAC | -0.0406
CTCGGCTA | -0.0141
AGACTCGA | -0.309

Sequence | PBM E-score
ATTTGGCG | -0.121
GGTACCAC | -0.0231
AGCACTGC | -0.204
AAGTCAGC | -0.0785
ACTGTCCT | -0.176
AATTTCGG | -0.103
AAATTTTG | 0.0397
AATACCAC | -0.0411
ATTGCCAG | -0.156
GCTTCTCC | -0.197
CGTCAATA | -0.0979
ATGCGGAC | -0.136
ACAGTGAC | 0.0575
CATCGGCG | -0.324
TTCGCCAA | -0.118
CTGGTACC | -0.0972
CACAAGAC | -0.0417
AACAGGCT | 0.305
CATATCCA | -0.0891
CTGTCCGA | 0.0291
CAAATCCC | -0.263
CCTGTGGC | -0.0178
AAGCCTGG | -0.078
ATGGATCA | -0.178
TCGCTAGA | -0.251

Sequence | PBM E-score
TGGCTTAA | -0.0163
AAGGTTCA | 0.0949
CAGAACAC | 0.0888
TAACTCTA | -0.185
GCGCTAGA | 0.0173
TTGGCCAA | -0.323
AGGCCGAC | -0.381
AGCACAGC | -0.0987
AAGAGTAT | -0.0506
AGCTGTGG | -0.23
CCCTAGAC | -0.243
AGTCCCTG | -0.261
AATGTAGG | 0.191
CTGTTTGA | 0.0397
CGCTGTTC | 0.067
GACTTCGC | -0.117
AGGCTACG | 0.198
AGTTTTAA | 0.109
GCTCCCTA | -0.148
CCTAAACG | 0.197
GCTCGGAA | -0.076
GTAAAAAC | 0.295
GCGCGAAA | 0.097
ACCGAACG | -0.104
GGAATGCA | -0.0874

Sequence | PBM E-score
ACCGAGCA | -0.193
ACTCGCCA | 0.0197
ATCACCGC | -0.045
AGAGACTG | -0.328
AGTTAGAT | 0.0673
GTTTATCA | 0.0384
ACGAGTTG | 0.0334
ACGCGTTA | 0.322
TAGCAGGA | 0.0679
AAGTTCTG | -0.0632
CAGAGACC | -0.247
AATAGAAG | 0.0367
ATTCTGCC | -0.235
GGGCGAAA | -0.09
GGTTAGAC | -0.0901
AACCTCGG | -0.252
CTCGCCTC | -0.175
CGCGCGGA | -0.156
CTGCTCGC | -0.159
CTGGATAC | -0.0992
CTTAGAAA | 0.11
ACAAAAGG | 0.142
CTGAAGCA | -0.102
CTACCCAG | -0.0987
TAGCCTGA | 0.229

Sequence | PBM E-score
CCGCATCC | -0.179
GCAACTCA | 0.0787
AGGGTTCC | 0.0511
CCGGCGAC | -0.266
ACAATAAC | 0.113
CTCTTCGC | -0.098
CAGGGGAG | -0.203
CGGTTACG | -0.0122
CACTTAGG | 0.184
ATTATAGA | -0.0674
GGCCCTTA | -0.0858
ACGTAATA | 0.35
GATCGATA | -0.131
GGTACATA | 0.238
ATTTATTC | 0.0806
AATCGCAC | -0.0611
AACACGAT | 0.349
ATTGGGTA | -0.155
GAAAACGC | 0.0746
CCACAGAA | 0.00876
ATGTGAGG | 0.0562
AGGGGGAT | -0.218
